# According to publication PMC12136788:
# The list shows a part of the results.
# T1: UNK ZnF1-3 (human, UniProt Q9C0B0 31-174)
# T1 sequence: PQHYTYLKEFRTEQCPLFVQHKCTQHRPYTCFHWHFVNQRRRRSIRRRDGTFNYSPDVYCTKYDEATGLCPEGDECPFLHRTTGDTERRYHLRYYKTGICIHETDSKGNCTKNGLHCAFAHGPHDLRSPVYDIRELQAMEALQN
# B1: chr7:141441981:141441982:+_ENSG00000106028_ENST00000265304|hu_mus|hu_hu_hu_mus_False|28_48 (ssRNA)
# RNA: GGGAGUUCUACAGUCCGACGAUCCUCAUGUCUUACAAACUGACGAAAUACCUGUAACACAGGUCUUCGAAACAUGGCUUCUGUUUUCUUUUCUUACUAAUCUUUAGUUAGGCUUUUAAGGAAAGAAAGAAAAGAGAAAAAUGACAACAGAGGAUUGAGCAUCA
# B2: 90986679_90991893_1066_CDS_ENSG00000140575_ENST00000268182|human|control|control (ssRNA)
# RNA: GGGAGUUCUACAGUCCGACGAUCCCCCAGGGCUGGUGACUGCAGAGCCCUGAACAAGGCCAGUGCAUCUCCUUGUUCUAAAGCCAGGUCGAUAUUUGCUAAUGCAGAAAAUGUAUUGACUUUGUUUAUAUUGCCUUGAAUUUCCAACAGAGGAUUGAGCAUCA
# B3: chr10:112361861:112361862:+_ENSG00000108055_ENST00000361804|hu_mus|motif|central (ssRNA)
# RNA: GGGAGUUCUACAGUCCGACGAUCAAUAGCUUCAUAUUUUCUAAGUUCAAGUACAUUCAUCAAUUCCAUGAUUGAUUUGUAGCCUCGGUCCAAUUCCUCUUGCCGCUUUAUCAGCUUUUCCUUCUGCUCAGAGAAAUUCACAAACAACAGAGGAUUGAGCAUCA
# B4: chr11:85008163:85008164:-_ENSMUSG00000018481_ENSMUST00000018625|mus_mus|FALSE|FALSE (ssRNA)
# RNA: GGGAGUUCUACAGUCCGACGAUCAGCAUUUUCAUACUGAUUCAUGUCAUAAUUAUACAGAGAUGCCAGGUGUCCCACUGAAAGGGCCACUUCAUAAUCUUCUUGGCCAAGGAGCUGCUCCUUAAUCUGAAUUGCUUUUAUGUGCAACAGAGGAUUGAGCAUCA
# B5: chr16:94690093:94690094:+_ENSMUSG00000040785_ENSMUST00000117648|mus_hu|mus_mus_mus_hu_True|58_108 (ssRNA)
# RNA: GGGAGUUCUACAGUCCGACGAUCGGGGACUCCUGUGGGACACACAGCCUCGAUUCCAGGGGGAAAAAGUCUUAGUCAAUACUAAUUAAAAAGUGUUAAUGAUUUUUGAAAAUCAGAUUACAUCUAUAAAAGAUGAAAAGCAAACAACAGAGGAUUGAGCAUCA
# B6: 120587509_120587830_4399_CDS_ENSG00000089154_ENST00000300648|human|control|control (ssRNA)
# RNA: GGGAGUUCUACAGUCCGACGAUCACAGUCAUCUGCAGCCUCACGCACAUACUGGUUUCCAUCCCCAAAGCACAGGAGCAGAUGGGGCAGCACGUGAACCACAUACGGCUCAAAAAGUUUCCCCAGCAUGGUGCAGAGCAUCUCCAACAGAGGAUUGAGCAUCA
# B7: chr16:75661828:75661829:-_ENSG00000065427_ENST00000302445|hu_hu|FALSE|FALSE (ssRNA)
# RNA: GGGAGUUCUACAGUCCGACGAUCUAUUAUUUUCUAGACAGAAGUGCCAACUGUUGUGCUUUCCAGUGUAUCAGUGGUUGCUACAUUCUCCUUCUUGUCUUCGGGUUUCAUGGCAGGAAACAGAAGUACUUCCUUGAUGUUGUUCAACAGAGGAUUGAGCAUCA
# B8: chr9:109937893:109937894:+_ENSMUSG00000032479_ENSMUST00000165876|mus_hu|FALSE|FALSE (ssRNA)
# RNA: GGGAGUUCUACAGUCCGACGAUCCUCACUUAUUCCUUUUUGUGUUUGUGCAAUUUCCAUGUCUUUAAUUGGAACUGGUGUUGCCUCUGUUUCUGAGAGUGGUGGAACAUCUUUGGCUGGAGUCACAUUGUUGGCCAGGGUCAGCAACAGAGGAUUGAGCAUCA
# B9: chr19:55172109:55172110:-_ENSMUSG00000024978_ENSMUST00000061856|mus_hu|FALSE|FALSE (ssRNA)
# RNA: GGGAGUUCUACAGUCCGACGAUCGUGUGCUUACAUCGACCAACACUGUAUUCUGAUGAAUGUGGCAGAUAAGAAACAUCUAUUGUACCAAGGGUCAGUGCAGAUUCAUCCAUGUCACAAAGUGUAAUUCCCAAAUCAUGUGCUCAACAGAGGAUUGAGCAUCA
# B10: chr11:100879890:100879891:+_ENSMUSG00000019302_ENSMUST00000044721|mus_hu|motif|central (ssRNA)
# RNA: GGGAGUUCUACAGUCCGACGAUCUUGGAAAACAUUCACAUCUGGAUUUAAGUCACGAAACUGAACCUUUCCAAGUUCUCCGGAUUCACUGACACAACAAUAAGCAGCCUCUGACUGUAGAAAAAGCUGGGCCAGUGUCAUUUCCAACAGAGGAUUGAGCAUCA
# B11: chrX:130830105:130830106:+_ENSMUSG00000033578_ENSMUST00000037687|mus_hu|FALSE|FALSE (ssRNA)
# RNA: GGGAGUUCUACAGUCCGACGAUCACUGUAGGCAUCCUUGCUGAGCCUGGGGGUCAGCUUGAUAGUCCCCAUGAAAACAAAGAAGAGUCCCAGGGCCACUGAGAGGGCCACAAUAGUUACGGUUCUGGGGGAUGCCAUGGGGUCCAACAGAGGAUUGAGCAUCA
# B12: chr9:128199989:128199990:-_ENSG00000119487_ENST00000373498|hu_mus|FALSE|FALSE (ssRNA)
# RNA: GGGAGUUCUACAGUCCGACGAUCCAAAGAAGCACACUUGACUCUGAGAUGCUUAGACACAAUGAUUUAAAAAAUGUCCUAAACACAGGUCGUAUAAGAUAUCGGCUGUGGCCCUGGCCCAAGGAUGCUGCCACAGGCGGGACCCAACAGAGGAUUGAGCAUCA
# B13: chr17:64801638:64801639:+_ENSG00000154229_ENST00000413366|hu_mus|hu_hu_hu_mus_False|58_98 (ssRNA)
# RNA: GGGAGUUCUACAGUCCGACGAUCUAUAUAUAUAUAUAUAUACACACACAUAUAUAGUAAAACCCUAGUUAAACGUGUAAACUAGCCAUUCAUUUUUAAAAUUACAUCUACAUUAAAAAAUUAAUAUAUCUGAUAGAGUGCCAGCAACAGAGGAUUGAGCAUCA
# B14: 33134949_33138083_1000_CDS_ENSG00000162521_ENST00000458695|human|control|control (ssRNA)
# RNA: GGGAGUUCUACAGUCCGACGAUCUAAAAUAGUCUCAUUGUGAGGUGACCACUGAACCUGGAAUAUUUCAUCCUUAUGUGACUCAAAGGAAUGCAACUUAAGUUUCAGAUUUCUCAGAUCCCACAAGGCAACAGUCUUGUCAGCCAACAGAGGAUUGAGCAUCA
# Target: T1, UNK ZnF1-3
# Experiment: nsRBNS (natural sequence RNA bind-n-seq); RBNS binding buffer (assumed for nsRBNS): 25 mM Tris pH 7.5, 150 mM KCl, 3 mM MgCl2, 0.01% Triton X-100, 500 ug/ml BSA, 20 U/ml SUPERase-In, 4 C; UNK is unkempt and MSI1 is Musashi-1; names of the RNAs are library labels; protein concentration not given here; high values mean tight binding
row,Binder,binding signal [enrichment R]
1,B1,0.606
2,B2,0.727
3,B3,0.574
4,B4,1.85
5,B5,1.47
6,B6,1.38
7,B7,0.567
8,B8,0.505
9,B9,0.782
10,B10,0.614
11,B11,1.08
12,B12,1.03
13,B13,1.22
14,B14,0.988
